# This is one part of the list. Interaction screen of human proteins with wild-type SARS-CoV-2 proteins by split-DHFR complementation in yeast, 1 µg/mL methotrexate. Value = fitness of the pair (three or more lineages) minus that of the viral protein without a human partner, on a scale set by negative (0) and fused positive (1) controls, mean of up to three cultures; higher = more likely to interact. Active = false discovery rate below 0.05 (one-sided t-test) in at least one culture. Nearly all pairs are not hits, and differences among them are mostly noise (correlation between cultures about 0.3); most hits were seen in one culture only. Human sequences are the Swiss-Prot entries looked up by gene name; the clone may be another isoform. NSP2 values were corrected by the authors for a growth advantage. Listed are human proteins with a hit and a random twelfth of the others.
# B1: CNPY3, Q9BT09 (protein)
# chain: MDSMPEPASRCLLLLPLLLLLLLLLPAPELGPSQAGAEENDWVRLPSKCEVCKYVAVELKSAFEETGKTKEVIGTGYGILDQKASGVKYTKSDLRLIEVTETICKRLLDYSLHKERTGSNRFAKGMSETFETLHNLVHKGVKVVMDIPYELWNETSAEVADLKKQCDVLVEEFEEVIEDWYRNHQEEDLTEFLCANHVLKGKDTSCLAEQWSGKKGDTAALGGKKSKKKSSRAKAAGGRSSSSKQRKELGGLEGDPSPEEDEGIQKASPLTHSPPDEL
# B2: CORO1B, Q9BR76 (protein)
# chain: MSFRKVVRQSKFRHVFGQPVKNDQCYEDIRVSRVTWDSTFCAVNPKFLAVIVEASGGGAFLVLPLSKTGRIDKAYPTVCGHTGPVLDIDWCPHNDEVIASGSEDCTVMVWQIPENGLTSPLTEPVVVLEGHTKRVGIIAWHPTARNVLLSAGCDNVVLIWNVGTAEELYRLDSLHPDLIYNVSWNHNGSLFCSACKDKSVRIIDPRRGTLVAEREKAHEGARPMRAIFLADGKVFTTGFSRMSERQLALWDPENLEEPMALQELDSSNGALLPFYDPDTSVVYVCGKGDSSIRYFEITEEPPYIHFLNTFTSKEPQRGMGSMPKRGLEVSKCEIARFYKLHERKCEPIVMTVPRKSDLFQDDLYPDTAGPEAALEAEEWVSGRDADPILISLREAYVPSKQRDLKISRRNVLSDSRPAMAPGSSHLGAPASTTTAADATPSGSLARAGEAGKLEEVMQELRALRALVKEQGDRICRLEEQLGRMENGDA
# B3: TUBB, P07437 (protein)
# chain: MREIVHIQAGQCGNQIGAKFWEVISDEHGIDPTGTYHGDSDLQLDRISVYYNEATGGKYVPRAILVDLEPGTMDSVRSGPFGQIFRPDNFVFGQSGAGNNWAKGHYTEGAELVDSVLDVVRKEAESCDCLQGFQLTHSLGGGTGSGMGTLLISKIREEYPDRIMNTFSVVPSPKVSDTVVEPYNATLSVHQLVENTDETYCIDNEALYDICFRTLKLTTPTYGDLNHLVSATMSGVTTCLRFPGQLNADLRKLAVNMVPFPRLHFFMPGFAPLTSRGSQQYRALTVPELTQQVFDAKNMMAACDPRHGRYLTVAAVFRGRMSMKEVDEQMLNVQNKNSSYFVEWIPNNVKTAVCDIPPRGLKMAVTFIGNSTAIQELFKRISEQFTAMFRRKAFLHWYTGEGMDEMEFTEAESNMNDLVSEYQQYQDATAEEEEDFGEEAEEEA
# B4: GSTK1, Q9Y2Q3 (protein)
# chain: MGPLPRTVELFYDVLSPYSWLGFEILCRYQNIWNINLQLRPSLITGIMKDSGNKPPGLLPRKGLYMANDLKLLRHHLQIPIHFPKDFLSVMLEKGSLSAMRFLTAVNLEHPEMLEKASRELWMRVWSRNEDITEPQSILAAAEKAGMSAEQAQGLLEKIATPKVKNQLKETTEAACRYGAFGLPITVAHVDGQTHMLFGSDRMELLAHLLGEKWMGPIPPAVNARL
# Target: SARS-CoV-2 E
# Experiment: yeast fitness gain over the viral ORF with no human partner (scaled fitness); higher = more likely to interact
# Protocol: (§1)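 Split mouse DHFR complementation in pooled diploid yeast: human ORFeome clones carry one fragment and viral ORFs the other; barcoded lineages compete in 1 µg/mL methotrexate and fitness is read by barcode sequencing in up to three cultures.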
row,Binder,yeast fitness gain
1,B1,inactive: 0.00608
2,B2,inactive: -0.000873
3,B3,inactive: 0.0361
4,B4,inactive: 0.016

# Target: SARS-CoV-2 M
# Experiment: as above
# Protocol: as §1
row,Binder,yeast fitness gain
1,B1,inactive: -0.0779
2,B2,inactive: 0.0255
3,B4,inactive: 0.052

# Target: SARS-CoV-2 N
# Experiment: as above
# Protocol: as §1
row,Binder,yeast fitness gain
1,B1,inactive: 0.0447
2,B2,inactive: 0.0615
3,B4,inactive: 0.0817

# Target: SARS-CoV-2 NSP1
# Experiment: as above
# Protocol: as §1
row,Binder,yeast fitness gain
1,B1,inactive: 0.00233
2,B2,inactive: 0.0429

# Target: SARS-CoV-2 NSP10
# Experiment: as above
# Protocol: as §1
row,Binder,yeast fitness gain
1,B1,inactive: -0.0367
2,B2,inactive: 0.0326
3,B4,inactive: -0.094

# Target: SARS-CoV-2 NSP12
# Experiment: as above
# Protocol: as §1
row,Binder,yeast fitness gain
1,B1,inactive: 0.0372
2,B2,inactive: 0.0212
3,B4,inactive: -0.0269

# Target: SARS-CoV-2 NSP13
# Experiment: as above
# Protocol: as §1
row,Binder,yeast fitness gain
1,B1,inactive: 0.0484
2,B2,inactive: 0.0394
3,B4,inactive: 0.0835

# Target: SARS-CoV-2 NSP14
# Experiment: as above
# Protocol: as §1
row,Binder,yeast fitness gain
1,B1,inactive: -0.255
2,B2,inactive: -0.0513
3,B4,inactive: 0.0252

# Target: SARS-CoV-2 NSP15
# Experiment: as above
# Protocol: as §1
row,Binder,yeast fitness gain
1,B1,inactive: 0.0324
2,B2,inactive: 0.011
3,B4,inactive: -0.0449

# Target: SARS-CoV-2 NSP16
# Experiment: as above
# Protocol: as §1
row,Binder,yeast fitness gain
1,B1,inactive: -0.06
2,B2,inactive: -0.00644

# Target: SARS-CoV-2 NSP2
# Experiment: as above
# Protocol: as §1
row,Binder,yeast fitness gain
1,B1,inactive: -0.0923
2,B2,inactive: -0.105
3,B4,inactive: -0.112

# Target: SARS-CoV-2 NSP4
# Experiment: as above
# Protocol: as §1
row,Binder,yeast fitness gain
1,B1,inactive: 0.0146
2,B2,inactive: -0.0358
3,B3,inactive: -0.00279
4,B4,inactive: 0.156

# Target: SARS-CoV-2 NSP5
# Experiment: as above
# Protocol: as §1
row,Binder,yeast fitness gain
1,B1,inactive: -0.0128
2,B2,inactive: 0.0093
3,B4,inactive: 0.0807

# Target: SARS-CoV-2 NSP6
# Experiment: as above
# Protocol: as §1
row,Binder,yeast fitness gain
1,B1,inactive: -0.0261
2,B2,inactive: -0.00141
3,B4,inactive: -0.0223

# Target: SARS-CoV-2 NSP7
# Experiment: as above
# Protocol: as §1
row,Binder,yeast fitness gain
1,B1,inactive: 0.0717
2,B2,inactive: 0.0158
3,B4,inactive: 0.0236

# Target: SARS-CoV-2 NSP8
# Experiment: as above
# Protocol: as §1
row,Binder,yeast fitness gain
1,B1,inactive: -0.00393
2,B2,inactive: 0.0623

# Target: SARS-CoV-2 NSP9
# Experiment: as above
# Protocol: as §1
row,Binder,yeast fitness gain
1,B1,inactive: 0.0447
2,B2,inactive: -0.0105

# Target: SARS-CoV-2 ORF10
# Experiment: as above
# Protocol: as §1
row,Binder,yeast fitness gain
1,B1,inactive: 0.00349
2,B2,inactive: 0.0121
3,B4,inactive: 0.0144

# Target: SARS-CoV-2 ORF3A
# Experiment: as above
# Protocol: as §1
row,Binder,yeast fitness gain
1,B1,inactive: 0.0703
2,B2,inactive: 0.029
3,B4,inactive: -0.0925

# Target: SARS-CoV-2 ORF3B
# Experiment: as above
# Protocol: as §1
row,Binder,yeast fitness gain
1,B1,inactive: 0.0377
2,B2,inactive: 0.00637
3,B4,inactive: 0.00626

# Target: SARS-CoV-2 ORF6
# Experiment: as above
# Protocol: as §1
row,Binder,yeast fitness gain
1,B1,inactive: 0.00311
2,B2,inactive: 0.00421
3,B4,inactive: 0.018

# Target: SARS-CoV-2 ORF7A
# Experiment: as above
# Protocol: as §1
row,Binder,yeast fitness gain
1,B1,inactive: 0.035
2,B2,inactive: -0.0247
3,B4,inactive: 0.105

# Target: SARS-CoV-2 ORF7B
# Experiment: as above
# Protocol: as §1
row,Binder,yeast fitness gain
1,B1,inactive: 0.0113
2,B2,inactive: 0.025
3,B4,inactive: -0.0104

# Target: SARS-CoV-2 ORF8
# Experiment: as above
# Protocol: as §1
row,Binder,yeast fitness gain
1,B1,inactive: 0.0134
2,B2,inactive: -0.0105
3,B4,inactive: 0.0151

# Target: SARS-CoV-2 ORF9B
# Experiment: as above
# Protocol: as §1
row,Binder,yeast fitness gain
1,B1,inactive: 0.0136
2,B2,inactive: 0.0077
3,B4,inactive: 0.00752

# Target: SARS-CoV-2 ORF9Bwu (the 73-codon ORF)
# Experiment: as above
# Protocol: as §1
row,Binder,yeast fitness gain
1,B1,inactive: 0.0408
2,B2,inactive: 0.0495

# Target: SARS-CoV-2 S
# Experiment: as above
# Protocol: as §1
row,Binder,yeast fitness gain
1,B1,inactive: -0.0339
2,B2,inactive: 0.0214
3,B4,inactive: -0.0888
